± gives the standard deviation of the averaged measurements. The list shows a part of the results.
The sequences below were run on PfAP2-G AP2 domain (GST-tagged) (assay: gcPBM binding intensity (ln(normalized median fluorescence intensity)); higher = stronger DNA binding).
How it was run: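 Using an Agilent 4 × 180k array, primer-extended double-stranded 36-bp intergenic genomic probes and negative controls were exposed for 1 h to GST-fused P. falciparum DNA-binding domains expressed in E. coli. Binding was carried out in 1× PBS with 1% milk, 0.2 mg/ml BSA, 0.5% salmon testes DNA and 0.03% Triton X-100, and protein was detected with Alexa488 anti-GST antibody and a 488 nm scan. Binding intensity is the highest Masliner-normalised natural-log median intensity across replicate spots of either probe orientation.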

Row | Sequence | gcPBM binding intensity (ln)
1 | TATAAATAGATATATACACACATGAAAATAAATAAA [CACACA_site7228] | 10 ± 0.13
2 | TATAATATAATATATGCACACAAATATGTATATATG [CACACA_site8664] | 10.1 ± 0.26
3 | AACTATATATAACTAGTGCAAAGACAATATTTTAAA | 10.025 ± 0.007
4 | AAAATTTAATATAATGCACACATAAAAAAAAAAAAT [CACACA_site8425] | 10.1 ± 0.25
5 | TTCTTTAAAATAAATTGTACTAACATATATATATAT [XGTACX_site6045] | 11.1 ± 0.74
6 | TACAGTTCAATGAAGGTGCAATTAATATATAAAATA | 10.1 ± 0.16
7 | ATAATATAATACGAAGGTACACATTTTCTTAATATA [XGTACX_site7947] | 11 ± 0.64
8 | TTATGTACAATTTCTTCTTTCTTTTTTCCTAAAGAC [CACACA_negctrl_site1193] | 11.1 ± 0.57
9 | TTTTTTTTTTTTTTTTGTACACATAATATGAATAAT [XGTACX_site2661] | 11.3 ± 1.1
10 | ATAACATATATATATACACACACATATATATATGAA [CACACA_site7983] | 9.8 ± 0.014
11 | CGTATAAATATACGTGCATGTAACTTTTTCTATATT [TGCATGCA_site981] | 10.3 ± 0.23
12 | CTATTTATTTTTGATGCATGCCAAATATAGAAAAAA [TGCATGCA_site368] | 10.1 ± 0.11
13 | TAGTAGTTATCACTAACATGCAATAATATTATTTAA [TGCATGCA_site161] | 9.66 ± 0.2
14 | TGACTGTAGATATTTTGTACATAACCTAATATATAT [XGTACX_site970] | 10.7 ± 0.43
15 | ATATATTTTTTGAATACACACATATTATAGGTAATA [CACACA_site6709] | 10.2 ± 0.29
16 | TTTTTTTTTCTTTTCAAACACACAATTGGTATATAT [CACACA_site3321] | 10.1 ± 0.24
17 | AAAAAAAAAAAAAACACACACATGCACATCATATTA [CACACA_site4467] | 10.12 ± 0.099
18 | TATGTGTAATATTTTTGTACAGAAAAAAAAAAAAAA [XGTACX_site7075] | 10.8 ± 0.77
19 | TCATTTCACAGACACACACACACAATATATTTCCTT [CACACA_site9295] | 10.3 ± 0.17

Row | Sequence | gcPBM binding intensity (ln)
20 | ATATTTTTATTAGTAGTGCAATTTAGTGTATATATA [GTGCAC_site9542] | 10.3 ± 0.38
21 | AAAAAAAAAATTAAAACATGCATAAATAAATATATT [TGCATGCA_site866] | 9.41 ± 0.37
22 | TATTAAATTTATCGGAGTACATTTAAATGTATATAC [XGTACX_site7975] | 11.6 ± 1.1
23 | TATATACGCAAACACACACACACATACACCCACATA [CACACA_site1724] | 10.5 ± 0.52
24 | TATTTAAAAAGAAAAAAAAAAAAAAAAATACATATA [CACACA_negctrl_site164] | 9.595 ± 0.049
25 | AAAAAAAAAAAATATACACACTAATATATTTTTTTA [CACACA_site4604] | 9.685 ± 0.092
26 | TATTACTATGTTATAACTTTTTTAAACGTGATCATA [TGCATGCA_negctrl_site128] | 9.93 ± 0.18
27 | TACTTACATTATTTATTTATATAAAAAGTTAATTAT [XGTACX_negctrl_site433] | 9.82 ± 0.14
28 | TGTATAAGTATTAATACACACACAAAATAATAAAAA [CACACA_site9156] | 10.3 ± 0.15
29 | AGTATTCATAAAAATACACACATGGAAAAATAAACT [CACACA_site6796] | 10.22 ± 0.035
30 | AAATTAAAATATAATACACACATAAAAAAAAAAAAA [CACACA_site4183] | 9.82 ± 0.38
31 | TATATATTTTTTTTTTGTACTCACAATATATGTATG [XGTACX_site8024] | 11.3 ± 0.84
32 | ATAATTAACAAATACACACACACACCCCCACAAAAA [CACACA_site518] | 11.3 ± 0.77
33 | TGTAATATAAAATTTTGTACTCAAAAATTTATATAT [XGTACX_site3252] | 11.2 ± 1
34 | ACTTATAAAAACATATACCCCATCGCATTTTTTCCA [XGTACX_negctrl_site177] | 10.07 ± 0.028
35 | AATTTTTTATATGTCACACATTTATTATTATTATTA [CACACA_site4198] | 10.01 ± 0.042
36 | ATAAAATTATATTTTGCATGCAGGCCTTTTTCTTAA [TGCATGCA_site1030] | 9.76 ± 0.042
37 | AAAAAAAAAAAAAACACACACATATATATATATATA [CACACA_site1891] | 10.1 ± 0.4
38 | TTTATTAGTAATTATACACACATATAAAATGAATAA [CACACA_site6754] | 9.945 ± 0.078

Row | Sequence | gcPBM binding intensity (ln)
39 | TATATTTATAGGTACACACACACATATAAATAAATA [CACACA_site6345] | 11.3 ± 0.98
40 | ATAAAATATTTTTGAACATGCAGGTAAAAAATAAAA [TGCATGCA_site1019] | 10.065 ± 0.007
41 | AGAATATTATATTATGCATGCATATAGAAAAATATA [TGCATGCA_site302] | 9.765 ± 0.064
42 | TTCCAAACCTCATTATGGAAAATAAAAAAATAAAAA [XGTACX_negctrl_site17] | 9.76 ± 0.11
43 | TTCCAAAAAGTTATTACACACATATGTGCACATATA [CACACA_site6465] | 10.5 ± 0.42
44 | ATTTTCCATTGTGCTACACACAACGGTTCGCAATAA [CACACA_site2974] | 10.3 ± 0.16
45 | ATCTAATAAAAATACACACACATATGATTTGTGAAT [CACACA_site1867] | 10.1 ± 0.28
46 | TTTAATTTTTTTAATTCACACATTATTCCATCCTTT [CACACA_site5480] | 9.945 ± 0.064
47 | AATAAATAAGCAACATGTACATACAAATATATACAT [XGTACX_site8529] | 11.2 ± 0.87
48 | TTATTCATATTATCATGTACTTATATATATTGTCAT [XGTACX_site2231] | 11.1 ± 0.86
49 | ACTAAAAGATATATAATTTCTTTCTTATTTATTTTT [CACACA_negctrl_site842] | 9.81 ± 0.071
50 | TAAAAAAAATAGTCAAGTACATAAGAAGGGAAGAAA [XGTACX_site8733] | 11 ± 0.59
51 | AAAAAAACATGAAACACACACAAATATTTATTTATA [CACACA_site6967] | 9.81 ± 0.071
52 | TGTTTCCAAAAAAAAAAAAAAAAAAAAAAAAAAAAA [CACACA_negctrl_site358] | 9.71 ± 0.38
53 | TTTTGTTTATTATGATTCAAAATGATTTTATCTTTG [TGCATGCA_negctrl_site425] | 9.73 ± 0.3
54 | TATTATATATATAAATGTACTTATTTTAATTCCCCT [XGTACX_site8638] | 11.3 ± 0.88
55 | ATTTTATTTTTTAAAGGTACAGTTACAGCTTATATA [XGTACX_site7513] | 11.1 ± 0.81
56 | GTACATATATACATTACACACGGTTTGATTTAAAAA [CACACA_site3379] | 10.8 ± 0.42

From the supplement of paper PMC11417369
